Measured values published in article PMC6919601, “Identification of Plasmodium dipeptidyl aminopeptidase allosteric inhibitors by high throughput screening” (PLoS ONE, 2019).
About 230 (0.21%) of roughly 110,000 compounds showed an effect of 50% or more. The list shows a part of the results.

Molecular target: DPAP1 (Plasmodium falciparum, UniProt Q8IIJ9)
Experiment: primary screen, percent inhibition; read by cleavage of a fluorogenic dipeptide substrate; higher = more effect of the substance
Design: species or system P. falciparum D10 trophozoite lysates; single well
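Further: 30 min substrate incubation versus DMSO and 10 µM JCP410 controls.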

Chain of DPAP1 (Q8IIJ9 whole entry, looked up): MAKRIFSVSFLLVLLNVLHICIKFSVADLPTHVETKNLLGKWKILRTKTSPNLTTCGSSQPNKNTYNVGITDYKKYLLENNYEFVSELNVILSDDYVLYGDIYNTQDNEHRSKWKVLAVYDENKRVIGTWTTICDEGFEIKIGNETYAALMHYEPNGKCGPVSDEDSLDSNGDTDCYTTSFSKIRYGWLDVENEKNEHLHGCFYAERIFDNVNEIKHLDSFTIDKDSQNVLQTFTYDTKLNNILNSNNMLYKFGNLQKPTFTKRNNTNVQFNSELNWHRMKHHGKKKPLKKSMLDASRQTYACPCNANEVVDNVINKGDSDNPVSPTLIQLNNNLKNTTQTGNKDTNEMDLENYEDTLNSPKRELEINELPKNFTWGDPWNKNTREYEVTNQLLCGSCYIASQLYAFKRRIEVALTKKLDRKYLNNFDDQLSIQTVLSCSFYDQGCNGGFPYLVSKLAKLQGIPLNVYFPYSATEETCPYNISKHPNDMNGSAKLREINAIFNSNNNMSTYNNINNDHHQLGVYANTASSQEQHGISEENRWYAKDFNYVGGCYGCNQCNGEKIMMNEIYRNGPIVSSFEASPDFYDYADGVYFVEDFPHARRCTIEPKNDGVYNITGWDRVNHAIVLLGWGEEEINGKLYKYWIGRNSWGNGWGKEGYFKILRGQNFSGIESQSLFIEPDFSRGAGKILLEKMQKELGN

Row | SMILES | % Inhibition @ 10 uM
1 | CCC(C)OC(=O)C1=C(C)NC(=O)CC1c1ccccc1C (stereo not drawn) | -1.62%
2 | COc1ccc(NC(=O)CCc2cc(OC)c(OC)c(OC)c2)cn1 | 1.88%
3 | COC(=O)CCCNS(=O)(=O)c1ccc([N+](=O)[O-])cc1 | -5.33%
4 | O=C(NC1CCCC1)C(c1ccc(Cl)cc1)N1CCN(C2CCCCC2)CC1 (stereo not drawn) | -3.01%
5 | COc1ccc(-c2cn3nc(C)c(C)nc3n2)cc1 | 2.49%
6 | CCCOc1ccc(-c2csc3ncn(CCC(C)C)c(=O)c23)cc1 | -10.4%
7 | N#C/C(=C\c1coc2ccccc2c1=O)C(=O)NCc1ccco1 | -2.19%
8 | c1coc(CNC2C3CC4CC(C3)CC2C4)c1 (stereo not drawn) | -5.59%
9 | CCOC(=O)N1CCN(C(=O)C2c3cc(OC)c(OC)cc3C(=O)N(C)C2c2ccccc2F)CC1 (stereo not drawn) | 1.07%
10 | COc1ccccc1CNC(=O)C1CCN(S(=O)(=O)N2CCOCC2)CC1 | 2.05%
11 | COc1ccccc1NC1=C(Cl)C(=O)N(c2cccc(C)c2)C1=O | -3.63%
12 | CC(C)NC(=O)c1cc2c(=O)n3ccccc3nc2n1C | -1.6%
13 | O=S(=O)(Nc1ccc(Br)cc1)c1ccc(F)cc1 | 1.91%
14 | Cc1ccc(CSC2=C(C#N)C(c3ccccc3)CC(=O)N2)cc1 (stereo not drawn) | -6.51%
15 | CCOc1ccc(S(=O)(=O)N(C)Cc2cnn(CC)c2C)cc1 | 2.08%
16 | CCOC(=O)N1CCN(C(=O)c2nn(C)c3c2CS(=O)(=O)c2ccccc2-3)CC1 | 2.62%
17 | CCOC(=O)c1c(C)[nH]c(C)c1S(=O)(=O)N1CCc2ccccc2C1 | -3.26%
18 | Cc1cccc(CNCc2ccccc2)c1 | -8.9%
19 | COc1ccc(C(C)NC(=O)c2ccc(OCC(C)C)cc2)cc1 (stereo not drawn) | 16.4%
20 | COCCNC(=O)C1CCN(c2cc(C)nc3c(-c4ccc(Cl)cc4)c(C)nn23)CC1 | -1.89%
21 | COc1ccc(S(=O)(=O)N(CC(=O)Nc2cccc(C(C)=O)c2)c2cccc(Cl)c2)cc1 | 2.86%
22 | O=C1C2C3C=CC(C2C(=O)N1c1ccccc1F)C1C(=O)N(c2ccccc2F)C(=O)C31 (stereo not drawn) | 3.1%
23 | O=C(NC12CC3CC(CC(C3)C1)C2)OCc1ccccc1 | 1.87%
24 | CCCNC(=O)c1cc(-c2ccccc2OCC)nc2ccccc12 | 3.17%

Row | SMILES | % Inhibition @ 10 uM
25 | O=C1CC(c2cccs2)Cc2nc(NCCSc3ccc(Cl)cc3)ncc21 (stereo not drawn) | 1.74%
26 | COc1cc(C2C(C#N)=C(N)Oc3[nH]nc(C)c32)cc(OC)c1OC (stereo not drawn) | -0.759%
27 | CCCCN1C(=O)C(NC(=O)C2CC2)(C(F)(F)F)C2=C1CC(C)(C)CC2=O (stereo not drawn) | -1.12%
28 | COC(=O)c1ccc(C2c3c(-c4ccccc4O)n[nH]c3C(=O)N2Cc2ccc(OC)cc2)cc1 (stereo not drawn) | 3.27%
29 | CCOC(=O)N1CCC(NCCc2cccc(F)c2)CC1 | -3.6%
30 | CC(C)Cn1cc(C(=O)N2CCOCC2)c2c3ccccc3n(C)c2c1=O | -3.12%
31 | Cc1cc(N2CCOCC2)n2ncnc2n1 | -2.79%
32 | CC(=O)C1=C(O)C(=O)N(CCN2CCOCC2)C1c1ccc(C(C)C)cc1 (stereo not drawn) | -3.34%
33 | CCOC(=O)c1c2c(n(C)c1C)C(=O)C(=O)c1ccc(Br)cc1-2 | -1.26%
34 | CCC1CCCCN1S(=O)(=O)c1ccc(F)cc1 (stereo not drawn) | -3.04%
35 | O=C(NCC1CCCO1)C1CCCN(S(=O)(=O)c2ccc3[nH]c(-c4ccccc4)nc3c2)C1 (stereo not drawn) | 3.08%
36 | COCCNC(=O)C1CCN(c2nnc(C)c3c(C)n(-c4ccc(Cl)cc4)nc23)CC1 | 1.91%
37 | O=C(O)Cn1c(SCCOc2ccc(Cl)cc2)nc2ccccc21 | -5.31%
38 | O=C(Nc1nc2ccccc2s1)c1cncc(Br)c1 | 2.02%
39 | Cc1ccc(C/N=c2/c(-c3ccc(Cl)cc3)c(O)c2=O)o1 | -2.92%
40 | O=C(CN1C(=O)c2cccc3cccc1c23)Nc1ccc(S(=O)(=O)Nc2ccc(F)cc2)cc1 | -2.03%
41 | CCOc1ccc(S(=O)(=O)NCC2CCCO2)c2cccnc12 (stereo not drawn) | 3.54%
42 | O=S(=O)(NCC1CCCO1)c1ccc(-n2cccn2)cc1 (stereo not drawn) | -1.08%
43 | CCN(Cc1ccccc1)S(=O)(=O)c1cc2nc(O)c(O)nc2cc1C | -0.401%
44 | COc1cc(-c2nc(O)c3c(n2)Oc2ccc(C)cc2C3)cc(OC)c1OC | 3.92%
45 | Cc1ccc(-c2noc(CN(C(=O)C(C)(C)Oc3ccc(Cl)cc3)C(C)C)n2)cc1 | -1.54%
46 | O=C(Nc1scc(-c2ccccc2)c1C(=O)O)c1ccccc1 | -1.37%
47 | CCOCCCNC(=O)c1cnn2c(C)c(Cc3cc(C)ccc3C)c(C)nc12 | 2.9%
48 | Cc1cc(NC(=O)CSc2nc3nncc-3c(O)n2-c2ccccc2C)[nH]n1 | -3.21%

Row | SMILES | % Inhibition @ 10 uM
49 | Cc1sc(NC(=O)C2CCCCC2)c(C#N)c1C | 2.38%
50 | CC1=CC(C)C2(CO)COC(c3ccc(N(C)C)cc3)C1C2C (stereo not drawn) | -4.03%
51 | O=C(CSc1nc2ccccc2s1)Nc1ccc(Cl)cn1 | -5.14%
52 | COc1ccc(OCc2ccc(C3C(C#N)=C(N)Oc4[nH]nc(C)c43)cc2OC)cc1 (stereo not drawn) | 1.57%
53 | OCC#CCSc1ncnn1-c1ccccc1 | 3.38%
54 | CCCCc1[nH]nc2c1C1(CCN(C)CC1)C(C#N)=C(N)O2 | -0.105%
55 | Cc1cc(OCC(O)CN2CCN(C)CC2)ccc1C(C)C (stereo not drawn) | 3.44%
56 | CCOC(=O)C1=C(CN2CC=C(c3ccccc3)CC2)NC(=O)NC1c1ccc(C)cc1 (stereo not drawn) | -5.16%
57 | COc1cc(/C=N/CCNS(=O)(=O)c2ccc(C)cc2)ccc1O | -5.87%
58 | CCOc1ccc(C(=O)CCNC(C(=O)O)C(C)CC)cc1 (stereo not drawn) | 71%
59 | COc1ccc(C2C(C#N)=C(N)Oc3c2c(C)nn3-c2ccccc2)cc1OC (stereo not drawn) | -6.59%
60 | O=C(OCCN1C(=O)c2ccccc2C1=O)N1CCOCC1 | 12.6%
61 | C=CCn1c(CSc2nc(N)cc(N)n2)nnc1SCC(=O)NC1CCCCC1 | 3.33%
62 | CN(C)CCN(C)Cc1coc2ccccc2c1=O | -3.27%
63 | COc1ccc(C2Nn3c(nnc3-c3ccccc3)SC2C(=O)N2CCOCC2)cc1 (stereo not drawn) | -1.72%
64 | O=C(NCCc1ccccc1)c1ccc(-c2ccccc2)s1 | -2.17%
65 | CP(=O)(O)C(c1cccc(Cl)c1)C(F)(F)F (stereo not drawn) | 7.24%
66 | CCN1C(=O)/C(=C\c2ccc(F)cc2)N=C1SCC(=O)NCc1ccco1 | 5.83%
67 | CC(=O)c1cccc(N2C(=O)C3C4c5ccccc5C(c5ccccc54)C3C2=O)c1 (stereo not drawn) | 2.13%
68 | O=C(CC12CC3CC(CC(C3)C1)C2)N1CCN(c2ccccc2F)CC1 | -3.65%
69 | O=c1c(-c2ccccc2)c(O)cc(-c2ccncc2)n1-c1ccc(Cl)cc1 | -1.07%
70 | COC(=O)c1nc2n(n1)C(c1ccc(C)cc1)C1=C(O)CCCC1=N2 (stereo not drawn) | 1.26%
71 | COc1cccc(=O)c2c(C)n(-c3ccc(C(=O)O)cc3)c(C)c12 | 0.778%
72 | c1cncc(-c2nnc(SCc3cccc4ccccc34)o2)c1 | -6.71%

Row | SMILES | % Inhibition @ 10 uM
73 | CC(C)(C)c1[nH]nc2c1C(c1ccc(F)cc1F)C(C#N)=C(N)O2 (stereo not drawn) | -0.883%
74 | CCCn1c2c(c(=N)c3c1CCC3)CCC2 | 4.07%
75 | COC(=O)C1CCCN1Cc1ccccc1C (stereo not drawn) | 3.24%
76 | Cc1cc2c(c(=O)n1CCN(C)C)C(c1cccc(Br)c1)C(C#N)=C(N)O2 (stereo not drawn) | 5.5%
77 | Cc1nnc2c(N3CCN(C4CCCCC4)CC3)nc3ccc(C(=O)c4ccccc4)cc3n12 | -0.984%
78 | CC(C)N1C(=O)/C(=C\Nc2ccc(Br)cc2)C(=O)N(Cc2ccco2)C1=O | -1.06%
79 | COc1ccc(C)cc1N(CC(=O)NCc1ccc(Cl)cc1)S(=O)(=O)c1ccccc1 | 6.24%
80 | O=C(O)c1cccc(NS(=O)(=O)c2cccc(S(=O)(=O)c3ccccc3)c2)c1 | 4.82%
81 | O=C(CCn1ccc2cc(S(=O)(=O)N3CCCC3)ccc21)NCc1ccc2c(c1)OCO2 | 0.58%
82 | COc1cc(-c2nnc3sc(COc4cccc(C)c4)nn23)cc(OC)c1OC | 23.3%
83 | Cc1c(C(c2cccc([N+](=O)[O-])c2O)c2c(C)n(C)n(-c3ccccc3)c2=O)c(=O)n(-c2ccccc2)n1C | 5.03%
84 | CCC(C(=O)NCCC(C)C)n1nc(C)c2c(C)n(-c3ccc(C)cc3)nc2c1=O (stereo not drawn) | -2.52%
85 | Cc1ccc(C2C(C#N)=C(N)N(c3ccc(S(N)(=O)=O)cc3)C3=C2C(=O)CC(C)(C)C3)cc1 (stereo not drawn) | -2.45%
86 | C/N=C1/S/C(=C/c2ccc(OC)c(OC)c2)C(=O)N1C1CCCCC1 | -2.28%
87 | CCC(NC(=O)c1ccc(Br)o1)c1ccc(C)cc1 (stereo not drawn) | -7.33%
88 | COc1ccccc1-c1coc2c(CN3CCN(C)CC3)c(O)ccc2c1=O | -4.78%
89 | CCCCC1CCC(C(=O)Nc2c3c(nn2-c2ccc(OC)cc2)CS(=O)(=O)C3)CC1 (stereo not drawn) | 2.79%
90 | NS(=O)(=O)c1ccc(NS(=O)(=O)c2ccc(NC(=O)CCc3ccccc3)cc2)cc1 | -1.02%
91 | Nc1nonc1-c1nc2ccccc2n1CC(=O)Nc1ccc(F)c(Cl)c1 | -3.65%
92 | CCCN1CCN(C(=O)C2CCN(c3ncnc4c3nc3n4CCCCC3)CC2)CC1 | 0.721%
93 | O=C(O)CCC(=O)Nc1ccc(S(=O)(=O)N2CCCC2)cc1 | 4.09%
94 | COc1ccc(-n2nnc(-c3nc(-c4ccccc4F)no3)c2N)cc1 | -2.15%
95 | COc1ccc(-c2cc3c(=O)n(CC(=O)N4CCC(N5CCCCC5)CC4)ncn3n2)cc1 | 0.623%
96 | CC(C)CN1CC(=O)C(c2nc3ccccc3[nH]2)=C1N | 3.74%
